# This is one part of the list. Values come from read counts of a selection and are noisy.
# T1: IRS2_PTB__Q9Y4H2_188_304
# T1 chain: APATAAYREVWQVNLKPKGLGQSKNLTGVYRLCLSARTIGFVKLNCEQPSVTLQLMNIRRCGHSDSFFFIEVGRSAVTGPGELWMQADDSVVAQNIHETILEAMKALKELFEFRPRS
# Biological target: T1, IRS2_PTB__Q9Y4H2_188_304
# Experiment: mean normalised NGS count of phage-displayed peptide after selection on bait (% of reads); baits are purified protein domains named by gene / domain / UniProt id / residues; peptides come from disordered regions of human proteins; higher = stronger enrichment / binding
# Details: replicate selections in which the peptide was seen: 5
row,Binder,mean normalised NGS count
1,LFQITTFAGWDGLLAP [SCN8A 1717-1732 mut P35498.S1723F],47.5
2,LFQITTFAGWDGLLAP [SCN10A 1717-1732 mut P35498.S1723F],47.5

# Biological target: Intersectin-1_SH3_1_Q15811_740_806
# Experiment: as above
# Details: replicate selections in which the peptide was seen: 4
row,Binder,mean normalised NGS count
1,DGMGYGDYPKLPDRSQ [NDUFB8 68-83 wt],0.00432

# Same assay, conditions: replicate selections in which the peptide was seen: 6
row,Binder,mean normalised NGS count
1,YGDYPKLPDRSQHERD [NDUFB8 72-87 wt],0.305
2,YPPLPPRWLEVINITK [TTN 15009-15024 mut Q8WZ42.S15012L],0.505
3,LEGAAPPIPPRLHSED [DISC1 725-740 wt],10.6
4,LEGAAPPIPPRLHSKD [DISC1 725-740 mut Q9NRI5.E739K],0.402

# Biological target: Intersectin-1_SH3_3_Q15811_1002_1060
# Experiment: as above
# Details: replicate selections in which the peptide was seen: 3
row,Binder,mean normalised NGS count
1,YGDYPKLPDRSQHERD [NDUFB8 72-87 wt],0.00784
2,KPPPLPRSNTVASFSS [TSC2 1262-1277 wt],0.00544

# Same assay, conditions: replicate selections in which the peptide was seen: 6
row,Binder,mean normalised NGS count
1,YPPLPPRWLEVINITK [TTN 15009-15024 mut Q8WZ42.S15012L],0.119
2,LEGAAPPIPPRLHSED [DISC1 725-740 wt],0.618
3,LEGAAPPIPPRLHSKD [DISC1 725-740 mut Q9NRI5.E739K],0.0547
4,QVIEGRQLPEVNIKPV [DYSF 225-240 mut O75923.G234E],0.724
5,PPPPPRGQVTLYEHNN [AAAS 8-23 wt],0.456
6,PPPPPPPREPFAPSLG [CTNND2 220-235 wt],0.367

# Biological target: Src_SH3__P12931_87_144
# Experiment: as above
# Details: replicate selections in which the peptide was seen: 6
row,Binder,mean normalised NGS count
1,YPPLPPRWLEVINITK [TTN 15009-15024 mut Q8WZ42.S15012L],0.0728
2,FLPPTPLEPSPTLPDL [DYSF 133-148 mut O75923.P134L],0.628
3,KPPPLPRSNTVASFSS [TSC2 1262-1277 wt],3.18
4,PPPPPRGKVTLYEHNN [AAAS 8-23 mut Q9NRG9.Q15K],1.46
5,QVIEGRQLPEVNIKPV [DYSF 225-240 mut O75923.G234E],1.27
6,PPPPPRGQVTLYEHNN [AAAS 8-23 wt],2.5
7,PPPPPPPREPFAPSLG [CTNND2 220-235 wt],0.94

# Biological target: Intersectin-1_SH3_5_Q15811_1155_1214
# Experiment: as above
# Details: replicate selections in which the peptide was seen: 6
row,Binder,mean normalised NGS count
1,LEGAAPPIPPRLHSED [DISC1 725-740 wt],33.8
2,LEGAAPPIPPRLHSKD [DISC1 725-740 mut Q9NRI5.E739K],4.27
3,PPPPPRGKVTLYEHNN [AAAS 8-23 mut Q9NRG9.Q15K],0.463
4,PPPPPRGQVTLYEHNN [AAAS 8-23 wt],47.7
5,PPPPPPPREPFAPSLG [CTNND2 220-235 wt],1.37

# Biological target: Src_SH3__P12931_87_144
# Experiment: as above
# Details: replicate selections in which the peptide was seen: 5
row,Binder,mean normalised NGS count
1,LEGAAPPIPPRLHSED [DISC1 725-740 wt],0.091

# Biological target: Intersectin-1_SH3_2_Q15811_913_971
# Experiment: as above
# Details: replicate selections in which the peptide was seen: 3
row,Binder,mean normalised NGS count
1,FPPPTPLEPSPTLPDL [DYSF 133-148 wt],0.0171

# Same assay, conditions: replicate selections in which the peptide was seen: 6
row,Binder,mean normalised NGS count
1,AVPLFLPPTPLEPSPT [DYSF 129-144 mut O75923.P134L],12.3
2,AVPLFPPPTPLEPSPT [DYSF 129-144 wt],5.77
3,FLPPTPLEPSPTLPDL [DYSF 133-148 mut O75923.P134L],33.6

# Biological target: NCK1_SH3_1_P16333_5_60
# Experiment: as above
# Details: replicate selections in which the peptide was seen: 3
row,Binder,mean normalised NGS count
1,AVPLFLPPTPLEPSPT [DYSF 129-144 mut O75923.P134L],0.0115

# Same assay, conditions: replicate selections in which the peptide was seen: 5
row,Binder,mean normalised NGS count
1,FLPPTPLEPSPTLPDL [DYSF 133-148 mut O75923.P134L],0.0703

# Biological target: Intersectin-1_SH3_3_Q15811_1002_1060
# Experiment: as above
# Details: replicate selections in which the peptide was seen: 2
row,Binder,mean normalised NGS count
1,SNQEDTGYKFRVLPQP [PMS2 553-568 mut P54278.C560Y],0.00595
2,VKVSEPPLPPGRVTLV [TTN 26217-26232 wt],0.00558
3,EPPLPPGRVTLADVTR [TTN 26221-26236 mut Q8WZ42.V26232A],0.011

# Biological target: Src_SH3__P12931_87_144
# Experiment: as above
# Details: replicate selections in which the peptide was seen: 4
row,Binder,mean normalised NGS count
1,SNQEDTGYKFRVLPQP [PMS2 553-568 mut P54278.C560Y],0.0536
2,EPPLPPGRVTLADVTR [TTN 26221-26236 mut Q8WZ42.V26232A],0.0584

# Biological target: Intersectin-1_SH3_3_Q15811_1002_1060
# Experiment: as above
# Details: replicate selections in which the peptide was seen: 4
row,Binder,mean normalised NGS count
1,MAPPSEERPLIPQRSA [JAK3 1-16 mut P52333.T8R],0.0204

# Same assay, conditions: replicate selections in which the peptide was seen: 5
row,Binder,mean normalised NGS count
1,PPPPPRGKVTLYEHNN [AAAS 8-23 mut Q9NRG9.Q15K],0.185

# Biological target: Intersectin-1_SH3_5_Q15811_1155_1214
# Experiment: as above
# Details: replicate selections in which the peptide was seen: 2
row,Binder,mean normalised NGS count
1,LLQLRLAESQARLDHD [BLOC1S3 108-123 wt],0.381

# Biological target: MK08_Pkinase__P45983_1_363
# Experiment: as above
# Details: replicate selections in which the peptide was seen: 2
# MK08_Pkinase__P45983_1_363, sequence (chain, as listed by the source): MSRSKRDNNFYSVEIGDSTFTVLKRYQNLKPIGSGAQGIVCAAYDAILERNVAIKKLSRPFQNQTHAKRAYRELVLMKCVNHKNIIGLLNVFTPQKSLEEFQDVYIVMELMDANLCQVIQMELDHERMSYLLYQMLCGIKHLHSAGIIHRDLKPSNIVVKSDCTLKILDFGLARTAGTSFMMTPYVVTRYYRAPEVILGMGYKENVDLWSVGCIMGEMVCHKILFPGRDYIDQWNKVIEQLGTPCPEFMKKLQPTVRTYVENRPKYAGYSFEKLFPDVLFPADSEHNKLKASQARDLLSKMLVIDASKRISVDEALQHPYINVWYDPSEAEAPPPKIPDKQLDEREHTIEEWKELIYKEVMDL
row,Binder,mean normalised NGS count
1,LLQLRLAESQARLDHD [BLOC1S3 108-123 wt],0.76

# Biological target: Intersectin-1_SH3_5_Q15811_1155_1214
# Experiment: as above
# Details: replicate selections in which the peptide was seen: 3
row,Binder,mean normalised NGS count
1,GPKIVPRELAEARGVV [SLC29A3 437-452 mut Q9BZD2.T449R],0.215

# Same assay, conditions: replicate selections in which the peptide was seen: 5
row,Binder,mean normalised NGS count
1,PLVPGRDRGQELRVVL [TYK2 626-641 wt],1.13

# Biological target: KPNA4_Arm__O00629_68_487
# Experiment: as above
# Details: replicate selections in which the peptide was seen: 2
# KPNA4_Arm__O00629_68_487, sequence (chain, as listed by the source): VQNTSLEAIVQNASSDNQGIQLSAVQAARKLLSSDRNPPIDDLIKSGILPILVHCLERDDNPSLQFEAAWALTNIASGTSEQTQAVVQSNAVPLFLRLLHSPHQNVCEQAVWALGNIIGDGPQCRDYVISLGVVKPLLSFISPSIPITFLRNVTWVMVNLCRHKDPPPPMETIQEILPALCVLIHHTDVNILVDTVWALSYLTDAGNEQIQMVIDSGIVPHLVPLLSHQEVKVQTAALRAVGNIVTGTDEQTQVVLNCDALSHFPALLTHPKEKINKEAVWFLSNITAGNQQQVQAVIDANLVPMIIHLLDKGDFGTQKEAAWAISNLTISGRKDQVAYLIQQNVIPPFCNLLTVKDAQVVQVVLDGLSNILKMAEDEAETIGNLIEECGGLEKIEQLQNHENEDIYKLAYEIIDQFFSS
row,Binder,mean normalised NGS count
1,PESKVAKLDTYQWPLL [DKC1 40-55 mut O60832.S50Y],0.0607
2,KFLEEVTRVSQEHPVV [CPS1 1150-1165 mut P31327.A1155V],0.215
3,MLGDLLASDATTGSGS [ACVRL1 173-188 mut P37023.D179A],0.884
4,MVAGMLELREEKSEDQ [MECP2 1-16 mut P51608.G7E],0.0863
5,GATEGTRSGLEELYWL [NRL 60-75 mut P54845.P67S],0.271
6,RLALAQGLGLWLGALA [PKD1 8-23 mut P98161.L13Q],0.815
7,AVMSRLPHHSESGQEH [MARVELD2 488-503 mut Q8N4S9.R500G],4.07

# Biological target: OXSR1___O95747_434_527
# Experiment: as above
# Details: replicate selections in which the peptide was seen: 2
# OXSR1___O95747_434_527, sequence (chain, as listed by the source): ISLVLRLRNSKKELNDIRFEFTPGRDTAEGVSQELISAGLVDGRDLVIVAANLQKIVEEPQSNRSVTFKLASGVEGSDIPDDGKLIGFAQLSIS
row,Binder,mean normalised NGS count
1,MLGDLLASDATTGSGS [ACVRL1 173-188 mut P37023.D179A],0.721

# Biological target: KPNA4_Arm__O00629_68_487
# Experiment: as above
# Details: replicate selections in which the peptide was seen: 3
row,Binder,mean normalised NGS count
1,LKRTWPLEVPETEPTL [FBXO7 8-23 wt],0.0689

# Same assay, conditions: replicate selections in which the peptide was seen: 4
row,Binder,mean normalised NGS count
1,SVARLTKEKKALQEAH [MYH7B 1037-1052 wt],0.714
2,KVPRLKEEHGIELSSP [CHD2 1351-1366 wt],0.154
3,PESKVAKLDTSQWPLL [DKC1 40-55 wt],6.7
4,FQGTESPKPAKMPKIV [RHBDF2 172-187 wt],0.0192
5,ESPKPAKMPKIVDLLA [RHBDF2 176-191 mut Q6PJF5.P189L],1.05

# Same assay, conditions: replicate selections in which the peptide was seen: 5
row,Binder,mean normalised NGS count
1,EAERLVKYREANGLPI [NDUFB11 121-136 wt],4.05
2,LKRTWPLEVPETEPML [FBXO7 8-23 mut Q9Y3I1.T22M],0.216
3,PESKVAKLDMSQWPLL [DKC1 40-55 mut O60832.T49M],0.375
4,MSSAKSARIETSASVL [NBN 475-490 mut O60934.L489V],0.116
5,VYIDRVRSLGTENAGL [LMNA 44-59 mut P02545.E53G],0.211
6,EVDINVEHGGKRSRLT [SQSTM1 254-269 mut Q13501.D258N],0.263

# Same assay, conditions: replicate selections in which the peptide was seen: 6
row,Binder,mean normalised NGS count
1,NLLDGPPNPKRAKLSS [CREBBP 4-19 wt],0.732
2,PESKVAKLDTSQWPVL [DKC1 40-55 mut O60832.L54V],8.62
3,EKRRWNEEPWESPAQV [RECQL4 260-275 wt],2.53
4,MKRPWQAQVEPQLLKT [GALT 49-64 mut P07902.G55C],4.47
5,MKRPWQGQVEPQLLKT [GALT 49-64 wt],8.91
6,DVEHGGKRSRLTPVSP [SQSTM1 258-273 wt],2.02
7,LDLDDRWQFKRSRLLD [ABRAXAS1 349-364 wt],2.07

# Same assay, conditions: replicate selections in which the peptide was seen: 7
row,Binder,mean normalised NGS count
1,EPSEKRTRLEEEIVEQ [CDC45 152-167 wt],8.12

# Biological target: KPNB1_Heat_1_Q14974_127_876
# Experiment: as above
# Details: replicate selections in which the peptide was seen: 2
# KPNB1_Heat_1_Q14974_127_876, sequence (chain, as listed by the source): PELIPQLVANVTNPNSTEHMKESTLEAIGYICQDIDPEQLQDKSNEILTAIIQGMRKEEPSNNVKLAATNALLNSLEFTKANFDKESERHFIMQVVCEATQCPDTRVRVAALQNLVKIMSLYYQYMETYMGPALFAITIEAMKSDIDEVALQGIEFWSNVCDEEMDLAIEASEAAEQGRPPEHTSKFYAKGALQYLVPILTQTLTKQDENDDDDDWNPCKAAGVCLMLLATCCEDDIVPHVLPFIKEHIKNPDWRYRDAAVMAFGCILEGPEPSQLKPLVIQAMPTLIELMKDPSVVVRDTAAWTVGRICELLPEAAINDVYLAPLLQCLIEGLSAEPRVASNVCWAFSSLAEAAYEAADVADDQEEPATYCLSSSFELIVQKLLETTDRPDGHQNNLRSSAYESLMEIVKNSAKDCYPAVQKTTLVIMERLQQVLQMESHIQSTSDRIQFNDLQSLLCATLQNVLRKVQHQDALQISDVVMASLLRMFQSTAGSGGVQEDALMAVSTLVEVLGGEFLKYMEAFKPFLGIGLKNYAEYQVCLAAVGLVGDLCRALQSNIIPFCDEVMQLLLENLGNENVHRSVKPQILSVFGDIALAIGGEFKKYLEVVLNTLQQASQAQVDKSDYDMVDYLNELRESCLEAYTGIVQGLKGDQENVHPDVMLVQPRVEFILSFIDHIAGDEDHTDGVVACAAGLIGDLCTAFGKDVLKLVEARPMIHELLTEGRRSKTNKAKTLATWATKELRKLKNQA
row,Binder,mean normalised NGS count
1,EIRQDLLDFLQDLLAH [RYR1 2026-2041 mut P21817.H2035L],53.4

# Reference: the supplement of paper PMC11369174, “Proteome-scale characterisation of motif-based interactome rewiring by disease mutations” (Molecular Systems Biology, 2024)
